{"source": "PubChem BioAssay AID1346428", "about": "(National Center for Advancing Translational Sciences (NCATS), 2018)", "note": "Among all 48,000 compounds or so, about 1,200 (2.5%) were called active. About 2% were inconclusive and are not listed.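 Rule for the calls: active = activation of at least 60% and not above a set upper limit (about 1 call in 100 departs from these limits); inconclusive = activation of 40% to 60%, or above that upper limit; inactive = activation under 40%.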 The list shows a part of the results."}
{"molecular_target": "Probable G-protein coupled receptor 32 (Homo sapiens) (UniProt O75388)", "sequence (O75388 whole entry, looked up)": "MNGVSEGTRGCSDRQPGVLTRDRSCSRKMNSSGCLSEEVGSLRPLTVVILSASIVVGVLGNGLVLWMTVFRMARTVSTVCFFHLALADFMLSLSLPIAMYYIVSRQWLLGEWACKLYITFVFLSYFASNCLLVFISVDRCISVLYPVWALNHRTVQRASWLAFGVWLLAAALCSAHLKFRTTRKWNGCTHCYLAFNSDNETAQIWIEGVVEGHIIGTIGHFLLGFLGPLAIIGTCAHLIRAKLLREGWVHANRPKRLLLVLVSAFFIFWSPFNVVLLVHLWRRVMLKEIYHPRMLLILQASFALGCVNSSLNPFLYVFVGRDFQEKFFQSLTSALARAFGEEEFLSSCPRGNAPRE", "experiment": "qHTS for Agonists of Human Resolvin D1 Receptor DRV1; note: 0% is about no effect", "conditions": "CHO-K1 GPR32 beta-arrestin PathHunter luminescence, 90 min; at 76.9 µM; hits give high values; zero percent set by DMSO-only wells", "method_in_brief": "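Engineered CHO-K1 line co-expressing GPR32-ProLink and EA-beta-arrestin. Compound treatment lasted 90 min at 37 °C. Luminescence was recorded after 1 h with substrate at ambient temperature, relative to DMSO basal wells.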"}
{"smiles": "CCN(Cc1ccccc1)C(=O)CN1C(=O)CSc2ccc(S(=O)(=O)N(CC)CC)cc21", "activation": "inactive: -38.8%"}
{"smiles": "COc1ccc(-c2c3c(nc4sc(C(=O)Nc5ccccc5F)c(N)c24)CC(C)(C)CC3=O)cc1", "activation": "inactive: 9.11%"}
{"smiles": "CCc1ccc(CNC(=O)c2nn(-c3ccc(OC)c(Cl)c3)c(=O)c3c2c2ccccc2n3C)cc1", "activation": "inactive: 1.71%"}
{"smiles": "CCOc1ccccc1NC(=O)CN1C(=O)COc2ccc(S(=O)(=O)Nc3ccccc3)cc21", "activation": "inactive: -7.41%"}
{"smiles": "COc1ccc(-c2nn(CC(=O)NCc3ccccc3)c3c2cnc2ccc(F)cc23)cc1", "activation": "inactive: -5.71%"}
{"smiles": "Cc1ccc(-c2nc3nc(C)cc(N4CCN(c5cccc(C)c5)C(C)C4)n3n2)cc1", "note": "(centres undefined)", "activation": "inactive: -1.77%"}
{"smiles": "O=C(Cn1c(=O)nc(-c2ccccc2F)c2cc(Cl)ccc21)Nc1ccccc1C(F)(F)F", "activation": "inactive: -15.9%"}
{"smiles": "CCCCN(C)CCCNC(=O)CN1C(=O)CSc2ccc(S(=O)(=O)N3CCOCC3)cc21", "activation": "inactive: -10.6%"}
{"smiles": "CCCCNC(=O)Cn1ncc2c(C)n(Cc3cccc(Cl)c3)c(C)c2c1=O", "activation": "inactive: 5.32%"}
{"smiles": "O=C(NCc1cccs1)c1nn(-c2ccccc2F)nc1CO", "activation": "inactive: -9.64%"}
{"smiles": "COc1cc2oc(=O)c(CC(=O)NCCc3ccccc3F)c(C)c2cc1OC", "activation": "active: 77%"}
{"smiles": "Cc1ccc(NC(=O)C2CCCN(S(=O)(=O)c3ccc4[nH]c(=O)ccc4c3)C2)cc1C", "note": "(centres undefined)", "activation": "inactive: -8.52%"}
{"smiles": "CCc1nn(CC(=O)N2CCN(c3cc(C)ccc3C)CC2)c(=O)c2cc3occc3n12", "activation": "inactive: 7.98%"}
{"smiles": "CC1=C(c2ccc(C)c(C)c2)S(=O)(=O)N=C1N1CCC(C(=O)Nc2ccc(Cl)cc2)CC1", "activation": "inactive: 16.2%"}
{"smiles": "O=S(=O)(Nc1ccc(-c2ccc(N3CCCCCC3)nn2)cc1)c1cccc(C(F)(F)F)c1", "activation": "inactive: -24.4%"}
{"smiles": "COc1ccc(CCNc2nc(SCc3ccc(F)cc3)nc3ccccc23)cc1OC", "activation": "inactive: -21.4%"}
{"smiles": "N#Cc1ccc(NC(=O)c2cc(-c3cccc(Cl)c3)on2)cc1", "activation": "inactive: -2%"}
{"smiles": "CCc1ccc(-c2nc(SCC(=O)NCC3CCCO3)c(-c3ccc(F)cc3)[nH]2)cc1", "note": "(centres undefined)", "activation": "inactive: -17.1%"}
{"smiles": "CNC(=O)c1ccc(CSc2nc3cccnc3n2Cc2cccc(F)c2)cc1", "activation": "inactive: 18.6%"}
{"smiles": "Fc1ccccc1N1CCN(c2ncc3c(n2)CCN(Cc2ccc(Br)s2)C3)CC1", "activation": "inactive: -9.67%"}
{"smiles": "Cc1ccc(C)c(NC(=O)N2CCc3cc(S(=O)(=O)N4CCC(C)CC4)ccc32)c1", "activation": "inactive: -25%"}
{"smiles": "Cc1ccc2nc(-c3cccc(Cl)c3)c(Nc3ccc4c(c3)OCO4)n2c1", "activation": "inactive: -0.632%"}
{"smiles": "C=CCc1ccccc1OCCn1c(C2CC(=O)N(Cc3ccc(F)cc3)C2)nc2ccccc21", "note": "(centres undefined)", "activation": "inactive: -24.1%"}
{"smiles": "CC(Oc1ccccc1)C(=O)OCc1cc(=O)n2nc(C(C)C)sc2n1", "note": "(centres undefined)", "activation": "inactive: 11.2%"}
{"smiles": "COc1ccccc1CCNC(=O)C(=O)NCC(c1cccs1)S(=O)(=O)c1ccc(F)cc1", "note": "(centres undefined)", "activation": "inactive: -1.89%"}
{"smiles": "O=C(Nc1cccc(-c2nc3ccccc3[nH]2)c1)c1ccccc1F", "activation": "inactive: 4.18%"}
{"smiles": "Cc1ccsc1CN(C(=O)c1ccc(Br)cc1)C1CCS(=O)(=O)C1", "note": "(centres undefined)", "activation": "inactive: -12.6%"}
{"smiles": "Cc1ccc(NC(=O)N2CCN3CCCCC3C2)cc1F", "note": "(centres undefined)", "activation": "inactive: 4.89%"}
{"smiles": "COc1ccccc1CNC(=O)c1ccc2c(c1)nnn2C1CCCC1", "activation": "inactive: -9.96%"}
{"smiles": "CCc1ccc(S(=O)(=O)c2nnn3c2nc(NCc2cccc(OC)c2)c2cc(Cl)ccc23)cc1", "activation": "inactive: -6.82%"}
{"smiles": "COc1ccc(Cl)cc1NC(=O)C1CCN(S(=O)(=O)c2ccc3c(c2)CCCN3C(=O)C2CCC2)CC1", "activation": "inactive: -7.2%"}
{"smiles": "Cc1cc(=O)[nH]c2nnc(SCC(=O)Nc3ccc(F)cc3F)n12", "activation": "inactive: 13.9%"}
{"smiles": "COc1ccccc1NC(=O)Cn1cc(C(=O)c2ccncc2)c(=O)c2cc(C)ccc21", "activation": "inactive: -10.6%"}
{"smiles": "COc1ccc2c(c1)CCC1C2CC[C@@]2(C)C1CC[C@@H]2NCCCCCCN1C(=O)CCC1=O", "note": "(some centres undefined)", "activation": "inactive: -2.22%"}
{"smiles": "CC(=O)N1CCN(c2nc3c(C)ccc(Cl)c3s2)CC1", "activation": "inactive: 48.6%"}
{"smiles": "CC(=O)c1cccc(NC(=O)Cn2c(=O)oc3cc(S(=O)(=O)NC4CCCC4)ccc32)c1", "activation": "inactive: 30.4%"}
{"smiles": "CC(=O)c1ccc(Nc2nc3ccccc3nc2-n2nc(C)cc2C)cc1", "activation": "inactive: -13.7%"}
{"smiles": "Cc1ccc(C)c(Cn2c3ccccc3c3cnn(CC(=O)NCC(C)c4ccccc4)c(=O)c32)c1", "note": "(centres undefined)", "activation": "inactive: -12.9%"}
{"smiles": "COc1cccc(NC(=O)CSc2nccn2Cc2ccc3c(c2)OCO3)c1", "activation": "active: 74.7%"}
{"smiles": "Cc1nc(-n2nc(C)c(Cc3ccc(Cl)cc3)c2C)sc1C(=O)N1CCCCC1C", "note": "(centres undefined)", "activation": "inactive: -4.48%"}
{"smiles": "O=C(CSCc1ccccc1Cl)NCc1ccc(Cl)c(Cl)c1", "activation": "inactive: -17.9%"}
{"smiles": "CCOc1ccccc1Nc1nc(-c2ccc(C)cc2)c(CC(=O)O)s1", "activation": "inactive: -32.4%"}
{"smiles": "O=c1[nH]c2ccc(NCc3ccc(-c4ccc(Cl)cc4)o3)cc2[nH]1", "activation": "inactive: -7.4%"}
{"smiles": "COc1ccc(OC)c(NC(=O)C(C)n2nc(C)c3c(C)n(-c4ccccc4)nc3c2=O)c1", "note": "(centres undefined)", "activation": "inactive: -11.1%"}
{"smiles": "COc1ccc(C2c3c(oc4ccc(Cl)cc4c3=O)C(=O)N2CCCN(C)C)cc1OC", "note": "(centres undefined)", "activation": "inactive: -21.5%"}
{"smiles": "COc1cccc(CNC(=O)CN2C(=O)N(c3c(C)cccc3C)S(=O)(=O)c3ccccc32)c1OC", "activation": "inactive: -8.02%"}
{"smiles": "COc1ccc(CN(C(=O)Nc2cccc(OC)c2)C2CCN(C(C)=O)CC2)cc1", "activation": "inactive: -19.5%"}
{"smiles": "Cc1ccc(NC(=O)CN2C(=O)CC(c3ccc(F)cc3)=Nc3ccccc32)cc1F", "activation": "inactive: -9.67%"}
{"smiles": "CC[N+](C)(CC)CCOC(=O)C(O)(c1ccccc1)C1CCCCC1", "note": "(centres undefined)", "activation": "inactive: -14.6%"}
{"smiles": "COc1ccc(/C=C\\c2onc(C)c2S(=O)(=O)N2CCC(C(=O)Nc3cccc(C)c3C)CC2)cc1", "activation": "inactive: -20%"}
{"smiles": "CCOc1ccc(NC(=O)Cn2nnc(C(=O)NCc3cccs3)c2N)cc1", "activation": "inactive: -0.633%"}
{"smiles": "Cc1cccc(C)c1NC(=O)CCS(=O)(=O)c1ccc2c(c1)CC(C)N2C(=O)C1CC1", "note": "(centres undefined)", "activation": "inactive: -5.16%"}
{"smiles": "COc1cccc(C(=O)Nc2nc3nc(C)c(C)c(=O)n3[nH]2)c1", "activation": "inactive: 23.2%"}
{"smiles": "CCn1cc(C(=O)N2CCN(c3ccccc3)CC2)c(=O)c2cc(S(=O)(=O)N3CCCC3)ccc21", "activation": "inactive: -6.33%"}
{"smiles": "CCNC(=O)c1c(NC(=O)Cc2coc3cc(C)ccc23)sc2c1CCCC2", "activation": "inactive: -23.7%"}
{"smiles": "CCn1c(C(=O)NCc2ccc(OC)cc2)cc2sc(Cl)cc21", "activation": "inactive: -18.8%"}
{"smiles": "Cc1ccc(Nc2ncnc3onc(C)c23)cc1Cl", "activation": "inactive: 2.3%"}
{"smiles": "O=C(Nc1c(O)c2ccccc2oc1=O)c1cccc(F)c1", "activation": "inactive: -6.71%"}
{"smiles": "CCc1ccccc1NC(=O)Cc1cn(C)c2ccccc12", "activation": "inactive: 18.6%"}
{"smiles": "CCOc1ccc(S(=O)(=O)Nc2cccc(C)c2)c2cccnc12", "activation": "inactive: 15.6%"}
{"smiles": "COc1cc(Cl)c(C)cc1NC(=O)c1ccc(CN2C(=O)CCn3nc(C)cc32)cc1", "activation": "inactive: -21.8%"}
{"smiles": "Cc1cc(C)cc(NC(=O)c2ccc3c(O)c(S(=O)(=O)c4ccccc4)c(=O)[nH]c3c2)c1", "activation": "inactive: -2.18%"}
{"smiles": "Cc1ccc(OCC(=O)N(Cc2ccco2)c2ccccn2)cc1", "activation": "inactive: -14.5%"}
{"smiles": "CCNC(=O)C1CCCN(c2nnc(C)c3c(C)n(-c4ccc(C)cc4)nc23)C1", "note": "(centres undefined)", "activation": "inactive: 5.45%"}
{"smiles": "CCOC(=O)c1[nH]c(C)c(CCC(=O)NCc2cccc(C)c2)c1C", "activation": "inactive: -12.9%"}
{"smiles": "CCOC(=O)c1c(C)[nH]c(C)c1S(=O)(=O)N1CCCC(C(=O)Nc2ccc(C)c(N(C)C)c2)C1", "note": "(centres undefined)", "activation": "inactive: -11.2%"}
{"smiles": "COC(=O)c1ccccc1NC(=O)C1(c2cccs2)CCOCC1", "activation": "inactive: -0.0755%"}
{"smiles": "CCC1(c2cnc[nH]2)Cc2ccccc2C1", "activation": "inactive: -3.67%"}
{"smiles": "CCCCOC(=O)c1ccc(NC(=O)Cc2coc3c(C)c(C)ccc23)cc1", "activation": "inactive: -29.4%"}
{"smiles": "Cc1cccc(CNC(=O)CN2C(=O)C3CCCCN3c3ccc(C(=O)N4CCCC4)cc32)c1", "note": "(centres undefined)", "activation": "inactive: -25.2%"}
{"smiles": "CCC(=O)N1CCc2cc(CNC(=O)Nc3cc(C)ccc3C)ccc21", "activation": "inactive: -11.4%"}
{"smiles": "Oc1c(C(c2ccccc2Cl)N2CCOCC2)sc2nc(-c3ccco3)nn12", "note": "(centres undefined)", "activation": "inactive: -11.9%"}
{"smiles": "Cc1ccc(C(=O)N2CCN(c3ccc(F)cc3)CC2)cc1NC(=O)c1nsc2ccccc12", "activation": "inactive: -17.6%"}
{"smiles": "COc1ccc(CCNS(=O)(=O)c2ccc(F)c(C(=O)Nc3ccc(Cl)cc3)c2)cc1OC", "activation": "active: 63.6%"}
{"smiles": "Cc1ccc(-c2nnc(Nc3ccc(Cl)c(Cl)c3)c3ccccc23)cc1S(=O)(=O)N(C)C", "activation": "inactive: 2.21%"}
{"smiles": "CCOC(=O)c1cccc(Nc2nc(C(=O)OCC)nc3ccccc23)c1", "activation": "inactive: -9.47%"}
{"smiles": "CCCCCn1c(=O)[nH]c2cc(C(=O)N3CCN(c4ccccc4F)CC3)ccc2c1=O", "activation": "inactive: -8.99%"}
{"smiles": "Cc1ccc(-n2ncc3c(NCCCn4ccnc4)ncnc32)cc1", "activation": "inactive: 34.7%"}
{"smiles": "CCOC(=O)c1[nH]c2ccccc2c1NC(=O)c1ccc(OCC)cc1", "activation": "inactive: 26%"}
{"smiles": "CCN1CCN(CCCNC(=O)c2cnn(-c3ccc(C)cc3)c2C2CCN(C(=O)OC(C)(C)C)CC2)CC1", "activation": "inactive: -8.03%"}
{"smiles": "Cc1ccc(NC(=O)c2cc(-c3cccs3)on2)cc1C", "activation": "inactive: 24.4%"}
{"smiles": "COc1ccc(S(=O)(=O)NCCS(=O)(=O)N2CCN(c3ccccc3F)CC2)cc1", "activation": "inactive: -4.53%"}
{"smiles": "c1csc(-c2nc3ccccn3c2Nc2ccc3c(c2)OCCO3)c1", "activation": "inactive: -2.79%"}
{"smiles": "COc1cccc(-n2c(SCC(=O)Nc3ccc(F)cc3F)nc3c([nH]c4ccccc43)c2=O)c1", "activation": "inactive: -45.6%"}
